In all, about 310,000 compounds went through this assay and about 14,000 (4.5%) showed an effect of 50% or more. Effects have a minus sign here. This is one part of the list.
biological target: human ether-à-go-go-related gene (hERG) potassium channel (human, UniProt Q12809); assay: primary screen, population patch clamp on CHO cells stably expressing hERG
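Note: peak tail current of the secondary pulse compared with the same well before compound.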

Sequence of human ether-à-go-go-related gene (hERG) potassium channel (Q12809 whole entry, looked up): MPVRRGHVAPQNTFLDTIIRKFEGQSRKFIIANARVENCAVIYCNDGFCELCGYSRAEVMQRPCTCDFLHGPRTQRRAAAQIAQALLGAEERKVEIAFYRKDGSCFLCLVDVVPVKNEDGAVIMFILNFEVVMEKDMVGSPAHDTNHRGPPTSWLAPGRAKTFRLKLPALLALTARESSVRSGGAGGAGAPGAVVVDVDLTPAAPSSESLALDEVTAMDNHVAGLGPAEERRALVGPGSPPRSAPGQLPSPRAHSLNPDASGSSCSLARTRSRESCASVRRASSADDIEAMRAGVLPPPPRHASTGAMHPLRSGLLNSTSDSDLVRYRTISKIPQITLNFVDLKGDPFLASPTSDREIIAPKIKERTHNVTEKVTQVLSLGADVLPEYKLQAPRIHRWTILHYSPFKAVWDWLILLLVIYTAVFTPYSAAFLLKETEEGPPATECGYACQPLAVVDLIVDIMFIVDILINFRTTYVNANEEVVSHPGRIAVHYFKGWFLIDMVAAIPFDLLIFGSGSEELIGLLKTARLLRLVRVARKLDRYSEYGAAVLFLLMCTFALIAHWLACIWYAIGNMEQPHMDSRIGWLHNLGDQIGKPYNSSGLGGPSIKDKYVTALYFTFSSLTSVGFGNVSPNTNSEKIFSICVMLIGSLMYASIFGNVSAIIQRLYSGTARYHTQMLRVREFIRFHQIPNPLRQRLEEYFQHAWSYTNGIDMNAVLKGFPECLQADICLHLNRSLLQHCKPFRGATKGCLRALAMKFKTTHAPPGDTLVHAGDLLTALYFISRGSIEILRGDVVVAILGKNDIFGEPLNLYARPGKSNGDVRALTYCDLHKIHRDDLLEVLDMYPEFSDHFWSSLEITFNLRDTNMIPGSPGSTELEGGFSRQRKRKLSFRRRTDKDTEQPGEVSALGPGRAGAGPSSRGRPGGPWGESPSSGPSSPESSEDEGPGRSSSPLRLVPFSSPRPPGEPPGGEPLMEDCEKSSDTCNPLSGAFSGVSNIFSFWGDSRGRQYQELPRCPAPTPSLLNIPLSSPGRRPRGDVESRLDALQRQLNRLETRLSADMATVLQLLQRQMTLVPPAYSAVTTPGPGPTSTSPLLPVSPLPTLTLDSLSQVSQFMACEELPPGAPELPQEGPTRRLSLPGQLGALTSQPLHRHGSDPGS

Row | SMILES | hERG current change (%, negative = inhibition) at 10uM [%]
1 | CC(C)(C)C(=O)Nc1sc(-c2ccccc2)cc1C(=O)O | 28.3
2 | O=C(Nc1ccc(-c2nc3ccccc3o2)cc1)c1ccc(N2CCOCC2)c([N+](=O)[O-])c1 | -4.46
3 | Cc1ccc(CNC(=O)c2cc(S(=O)(=O)N3CCCC3)cn2C)cc1 | 0.308
4 | Cc1ccc(S(=O)(=O)NCC(c2ccc3c(c2)OCO3)N2CCOCC2)cc1 (stereo not shown) | -8.63
5 | COc1ccccc1CN(C)c1nnnn1-c1ccccc1 | -11
6 | COc1ccc(C(=O)NC(NC(=O)c2ccc(OC)c(OC)c2)c2ccccc2F)cc1OC | 7.59
7 | O=C(NCc1ccc(Cl)cc1)c1ccc(S(=O)(=O)N2CCCCC2)cc1 | 5.33
8 | CC(=O)OC1C2CCCC1C(N1CCCC1)CC2.Cl (stereo not shown) | -5.54
9 | CC(=O)Oc1ccc(C(=O)Nc2ccccc2C(=O)Nc2cccc(C(=O)O)c2)cc1 | 13
10 | CCCCCCCNC(=O)C1(CC2CC(c3ccc(Cl)cc3)=NO2)CCNCC1 (stereo not shown) | -63.1
11 | COc1ccc(C2=NN(C(C)=O)C(c3cccs3)C2)cc1OC (stereo not shown) | -2.48
12 | CN(C)c1ccnc(Nc2ccc(O)cc2)c1C#N | 29.4
13 | CCc1ccc(CCC(=O)Nc2ccc(S(N)(=O)=O)cc2)o1 | 2.43
14 | O=C(CCC(=O)OCC(=O)c1ccc(C(F)(F)F)cc1)OCC(=O)c1ccc(C(F)(F)F)cc1 | 20.4
15 | COc1ccccc1CNC(=O)CCCC(=O)n1ncc2cc(C)ccc21 | 1.65
16 | CCN(CC)c1ccc(NC(=O)c2cnn(CC)c2)cc1 | -2.83
17 | CC1(C)CSC(Nc2ccc(F)c(Cl)c2)=N1 | -10.5
18 | COc1ccc(CN2CCNC(=O)C2CC(=O)NCCCC2CCCC2)c(F)c1 (stereo not shown) | -31.5
19 | O/N=C1\CCC2CN(C3CCCCC3)CC2C1 (stereo not shown) | -6.55
20 | O=C(Cc1ccccc1Cl)N1CCN(c2ncccn2)CC1 | 13.8
21 | Cc1ccc(-n2nnnc2SCc2nnc(-c3ccccc3Br)o2)cc1 | -12.2
22 | COc1cc(-c2nnc(SC/C=C/c3ccccc3)n2N)cc(OC)c1OC | -3.66

Row | SMILES | hERG current change (%, negative = inhibition) at 10uM [%]
23 | O=C(CN(Cc1ccco1)C(=O)c1ccc([N+](=O)[O-])cc1)Nc1ccccc1C(F)(F)F | -31.5
24 | O=Cc1cn(Cc2c(F)cccc2Cl)c2ccccc12 | 6.77
25 | N#CC1=C2SCN(Cc3ccco3)CN2C(=O)CC1c1ccccc1F (stereo not shown) | 2.3
26 | CCN(C(=O)COC(=O)c1ccc(OCc2c(C)noc2C)cc1)c1ccccc1 | -3.74
27 | Cn1c(SCCOc2ccc(F)cc2)nnc1-c1ccncc1 | -44.4
28 | COc1ccccc1/C=C/C(=O)Nc1cccc(S(=O)(=O)NC2=NCCCCC2)c1 | 3.64
29 | COc1cc2[nH]c(=S)n(CCN3CCOCC3)c(=O)c2cc1OC | 0.519
30 | CCCS(=O)(=O)N1CCN(c2ccccn2)CC1 | -5.62
31 | N#Cc1cc2cc3c(cc2nc1SCC(=O)N1CCOCC1)OCCO3 | 23
32 | CC1=C2C(=O)OC(c3ccoc3)C2(C)CCC1 (stereo not shown) | -24.5
33 | N#CCc1ccc(OC(=O)Nc2ccccc2)cc1 | -22.5
34 | Cc1cccc(N2CCN(C(=O)CSc3ccc4c(c3)OCCO4)CC2)c1C | -2.29
35 | CSC1=C(C#N)C(c2ccc(C)cc2)C2=C(CCCC2=O)N1 (stereo not shown) | -6.02
36 | c1ccc(-c2nnc(N3CCN(c4ccccn4)CC3)c3ccccc23)cc1 | -40.6
37 | CC(=O)NC(c1ccco1)c1ccc2cccnc2c1O (stereo not shown) | 0.0798
38 | COc1ccccc1-c1nc2ccccc2nc1-c1ccccc1OC | -0.122
39 | Cc1nc2c(cnn2-c2ccccc2Cl)c(=O)n1-c1ccc(C(C)C)cc1 | 14
40 | COc1ccc(OC)c(-c2cc(C(=O)N3CCOCC3)no2)c1 | 7.74
41 | O=C(N[C@@H](Cc1ccccc1)C(=O)CCl)OCc1ccccc1 | -0.696
42 | COc1ccc(NC(=O)COC(=O)c2ccc(NS(=O)(=O)/C=C/c3ccccc3)cc2)cc1 | 0.149
43 | CCN(CCNS(=O)(=O)c1ccc2c(c1)oc(=O)n2C)c1ccccc1 | -8.95
44 | CCC1CCCCN1C(=S)Nc1cccc(S(=O)(=O)N(C)C)c1 (stereo not shown) | -6.73

Row | SMILES | hERG current change (%, negative = inhibition) at 10uM [%]
45 | O=C(Nc1cccc(-c2csc(Nc3cccc(C(F)(F)F)c3)n2)c1)c1cc([N+](=O)[O-])cc(C(F)(F)F)c1 | 5.05
46 | CCc1ccc(C2CC(c3ccccc3)n3ncnc3N2)cc1 (stereo not shown) | -17.2
47 | Nc1nc(O)c(Sc2ccccc2[N+](=O)[O-])c(=O)[nH]1 | 17.7
48 | CC1CCCCC12NC(=O)N(CC(=O)NC(=O)Nc1ccc3c(c1)OCCO3)C2=O (stereo not shown) | 20
49 | CCOC(=O)c1c(NC(=O)CCC(=O)N(CC)CC)sc2c1CC(C)(C)OC2 | -9.08
50 | O=C(O)c1ccc(CSc2nnc(-c3ccncc3)n2CC2CCCO2)cc1 (stereo not shown) | -1.78
51 | CCN(CC(=O)Nc1c(F)cccc1F)C(=O)CSC(=S)N1CCCC1 | -2.91
52 | O=C(CNC(=O)Cn1cnc2sc3c(c2c1=O)CCCC3)NCc1ccccn1 | 9.49
53 | Cc1ccc(-n2nc(N)c3c(=O)oc(N(C)C)nc32)cc1 | -1.41
54 | Cc1cc(C)c[n+](-c2nc3ccccc3nc2[N-]S(=O)(=O)c2ccc(Br)s2)c1 | -25.9
55 | CC(C)c1ccc(Nc2nc(CC(=O)O)cs2)cc1 | 9.04
56 | CC1(C)CC[C@@]23CC[C@]4(C)[C@@](OC2=O)(C3C1)[C@H]1O[C@H]1C1[C@@]2(C)CC[C@H](O)C(C)(C)C2CC[C@]14C (stereo partly shown) | 3.81
57 | Cc1cccc(OCc2nc(-c3nonc3N)no2)c1C | 1.57
58 | Cc1cc(N)n2nc(-c3ccccc3)c(-c3ccccc3)c2n1 | 7.59
59 | O=C(CSC1=Nc2ccccc2C2=NC(Cc3c[nH]c4ccccc34)C(=O)N12)NC1CCCCC1 (stereo not shown) | -20.5
60 | CC(=O)Nc1ccc(S(=O)(=O)NC2C3(C)CCC(C3)C2(C)C)cc1 (stereo not shown) | 16.9
61 | COC(=O)c1ccc(C2C(Oc3ccc(OC)cc3)C(=O)N2CCc2ccc(OC)c(OC)c2)cc1 (stereo not shown) | 0.881
62 | COc1ccccc1NC(=S)N(Cc1ccc(C)cc1)Cc1cccnc1 | -37
63 | COCc1cc(=O)oc2cc(NC(=O)c3ccc(C(C)(C)C)cc3)ccc12 | 13.7
64 | COc1cc(C(=O)N(c2ccc(C)c(C)c2)C2C=CS(=O)(=O)C2)cc(OC)c1OC (stereo not shown) | -20.9
65 | S=c1[nH]c(-c2ccccc2)cn1-c1ccccc1 | 13.6
66 | COc1ccc(C(=O)NNC(=O)c2cc(C)[nH]n2)cc1 | 24.1

Row | SMILES | hERG current change (%, negative = inhibition) at 10uM [%]
67 | CCN1CCN(C(=O)c2cc(COc3ccc(F)cc3F)on2)[C@@H](C)C1=O | 0.18
68 | Cn1cnnc1SCC(=O)Nc1ccc(F)cc1 | 20
69 | COc1ccc(Br)c(-c2nc(CS(=O)(=O)c3ccc(F)cc3)no2)c1 | -3.08
70 | CCOC(=O)Cn1cnc2c(nnn2Cc2ccc(Cl)cc2)c1=O | 3.06
71 | CC1(C)CC2CC(C)(CN2C(=O)COC(=O)c2cccc(O)c2)C1 (stereo not shown) | 6.76
72 | CC(=O)N1c2ccccc2Sc2ccccc21 | 14.7
73 | CC(NC(=O)[C@H](C)NC(=O)N1CCn2c1nc1ccccc12)c1ccccc1 (stereo partly shown) | 6.21
74 | CN(C)CCCN1C(=O)CSC1c1ccc([N+](=O)[O-])cc1.Cl (stereo not shown) | -46
75 | O=C(CN(C(=O)c1csnn1)c1ccccc1)NCCc1ccccc1 | -15
76 | Clc1ccc(CNCCc2ccc3c(c2)OCO3)cc1.O=C(O)C(=O)O | -56.1
77 | CCOc1ccc(CNC(=O)CCC(=O)n2ncc3ccc(Cl)cc32)cc1 | -1.82
78 | CC(=O)c1cccc(NC(=O)Nc2ccccc2)c1 | 18.1
79 | O=C(CCC(=O)N(CC(=O)NC1CCCC1)C1CCCCC1)Nc1ccccn1 | 4.95
80 | O=C1NC(=O)N(Cc2ccccc2)C(=O)/C1=C\c1ccco1 | 33.4
81 | CCN(CC(=O)N1CCCC1)S(=O)(=O)c1ccccc1 | 18.3
82 | COc1ccccc1NC(=S)Nc1ccc2cn[nH]c2c1 | 4.79
83 | Nc1ccn(CC(=O)NCc2ccccn2)c(=O)n1 | 8.3
84 | Cn1c(C(=O)N2CCN(c3ncccn3)CC2)cc2c(=O)n(C)c3ccccc3c21 | -15.6
85 | CC(C)(C)c1ccc(C(=O)NCCC(=O)N2CCC3(CC2)NCCc2[nH]cnc23)cc1 | 15.4
86 | Cn1c(CNC(=O)CCNC(=O)c2cccc(Br)c2)cc(=O)n(C)c1=O | 4.99
87 | COc1ccc(NC2=C(c3ccc(OC)cc3)C(=O)c3ccccc32)cc1 | -4.91
88 | CC(=O)CSc1cc(-c2ccccc2)nc2ncnn12 | 3.44
